Test results taken from PubChem BioAssay AID1347417 (National Center for Advancing Translational Sciences (NCATS), 2020).
The whole screen tested about 120,000 compounds, of which about 5,300 (4.4%) were called active. Inconclusive results, whose numbers are uncertain, are shown with a selection of clear calls. Calls come from the whole dose curve; as a rule, active = well fitted inhibition curve with a large enough effect; inconclusive = small, poorly fitted or top-dose-only effect; inactive = no such curve, though single readings can be large or run the other way. Potencies of inconclusive entries are doubtful fits and often do not repeat.
Potency is the fitted concentration of half-maximal effect; tags give direction and shape of the fitted curve.

Experiment: qHTS Primary assay for Inhibitors of Plasmodium falciparum Dd2 growth in vitro; note: nearly all actives have a fitted effect of over 65% in size;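 for activity, negative = inhibition: plate controls were DMSO vehicle for no effect and reference drug for full effect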
Conditions: P. falciparum Dd2 growth, SYBR Green, 72 h; activity, negative = inhibition: at 28.9 µM (top of the series) unless noted; series mostly up to 28.9 µM
Method in brief: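 Infected erythrocytes (Dd2, 0.3% parasitemia, 2.5% hematocrit final) are added to compound in RPMI-1640/Albumax II medium, grown 72 h at 37C in low oxygen, then lysed with saponin/Triton-X containing SYBR Green and read by fluorescence.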
For O=c1c2oc3ccccc3c2ncn1Cc1ccc(Br)cc1, the Potency was inconclusive: 4.47 µM [inhibitor, partial curve].
In the case of CC(C)c1nc2c(c(-c3ccc(Cl)cc3)n1)CCN(C(=O)c1ccccc1)CC2, the Potency is reported as inconclusive: 17.8 µM [inhibitor, single point].
For COc1cc(OC)cc(N2C(=O)[C@@H]3C[C@@H](NC(=O)c4cccs4)CCN3C2=O)c1, the Potency was “inactive”.
In the case of CS(=O)(=O)N1CCC(C2CCN(C(=O)c3ccc(F)c(Cl)c3)C2)CC1 (stereo unspecified), the Potency is reported as “inactive”.
In the case of CCOc1ccc(CCNC(=O)c2cc3c(-c4ccccc4F)nn(C)c3s2)cc1OCC, the Potency is reported as inconclusive: 11.2 µM [inhibitor, single point].
With O=C(Cn1cccn1)N1CC(F)(F)C[C@H]1c1nc(C2CC2)no1 the Potency was “inactive”.
In the case of CCC(=O)N1CC(=O)N(CC)C2(CCOCC2)C1, the Potency is reported as “inactive”.
With CCN(CC)C(=O)COc1ccc(-c2nnc(Nc3ccc(OC)c(C(=O)NC)c3)c3ccccc23)cc1 the Potency was inconclusive: 17.8 µM [inhibitor, single point].
In the case of Cc1ccccc1NCc1nc2c(n1Cc1ccccc1)C(=O)N(CCOc1ccccc1)CCN2, the Potency is reported as inconclusive: 1.78 µM [inhibitor, partial curve].
With COCCNC(=O)C(NC(=O)c1ccc(F)cc1)C1CCN(C(=O)C2CC2)CC1 (stereo unspecified) the Potency was “inactive”.
In the case of COCCN1C(=O)c2ccccc2C(C(=O)Nc2ccccc2C)C12CCCCC2 (stereo unspecified), the Potency is reported as inconclusive: 17.8 µM [inhibitor, single point].
In the case of CCC(=O)N1CCc2cc(Br)cc(S(=O)(=O)NCc3ccccc3)c21, the Potency is reported as “inactive”.
With C[C@@]1(O)CCN(Cc2ccccc2F)C[C@H]1N1CCCC1 the Potency was inconclusive: 1.26 µM [inhibitor, partial curve, poor fit].
In the case of O=C(CCCCCn1c(=O)[nH]c2ccccc2c1=O)NCc1ccc(Cl)cc1, the Potency is reported as “inactive”.
With CNC(=O)[C@@H]1CN(C(=O)c2cc(OC)cc(OC)c2)C[C@H]1COC the Potency was inconclusive: 0.708 µM [inhibitor, full curve, poor fit].
For COc1ccc(N2CC(c3noc(-c4cccc(F)c4)n3)CC2=O)cc1 (stereo unspecified), the Potency was “inactive”.
With CCn1nccc1C(=O)N1C[C@@H]2CCCN3CCC[C@@H]([C@H]23)[C@H]1CCCC(=O)Nc1ccccc1 the Potency was inconclusive: 17.8 µM [inhibitor, single point].
For O=C(Nc1cccc(-c2cccc(Cl)c2)c1)C1CCN(Cc2cccc(O)c2)CC1, the Potency was active: 3.98 µM.
In the case of O=C(c1cccc(C(F)(F)F)c1)N1CCC(c2n[nH]c(=O)n2Cc2ccc(F)cc2)CC1, the Potency is reported as inconclusive: 7.94 µM [inhibitor, single point].
In the case of Cc1ccc(C2NC(=O)N(CC(=O)N(C)c3cccc(C)c3)C3=C2C(=O)OC3)cc1 (stereo unspecified), the Potency is reported as “inactive”.
For O=C(NCCc1ccc(Cl)cc1)c1ccc2c(c1)N(Cc1cccc(Cl)c1)C(=O)c1ccccc1S2(=O)=O, the Potency was inconclusive: 10 µM [inhibitor, single point].
With CCn1nc(C)c2c(-c3ccccc3)cc(=O)n(C(C)C(=O)NCCc3ccccc3)c21 (stereo unspecified) the Potency was inconclusive: 10 µM [inhibitor, single point].
In the case of N#Cc1ccc(CN2C[C@@H]3C[C@H]2C(=O)N(Cc2ccccc2)c2ccccc2O3)cc1, the Potency is reported as inconclusive: 10 µM [inhibitor, partial curve, poor fit].
In the case of Cc1cc(=O)oc2c3c(ccc12)OCN(Cc1ccc(Cl)cc1)C3, the Potency is reported as active: 5.62 µM.
For O=C(Nc1ccc(N2CCOCC2)cc1)C1(CCO)CCN(Cc2ccccc2)C1 (stereo unspecified), the Potency was inconclusive: 11.2 µM [inhibitor, partial curve].
With Cc1ccn2c(Nc3ccccc3C)c(-c3cccnc3)nc2c1 the Potency was inconclusive: 14.1 µM [inhibitor, single point].
For Cc1ccc2[nH]c(CN3CCN(CC4CCN(C)CC4)CC3)cc(=O)c2c1, the Potency was “inactive”.
With CCc1noc(-c2cn(C3CCN(C(=O)COc4ccccc4)CC3)nn2)n1 the Potency was inconclusive: 5.01 µM [inhibitor, partial curve, poor fit].
For CN(CCc1ccccc1)[C@@H]1[C@H](O)[C@H](CO)O[C@@H]1CNC(=O)c1cccc(F)c1, the Potency was inconclusive: 20 µM [inhibitor, single point].
With NCc1ccccc1-c1cccc(C(F)(F)F)c1 the Potency was inconclusive: 10 µM [inhibitor, partial curve].
In the case of Cc1nnc(NC(=O)NC2CCN(Cc3ccccc3)CC2)s1, the Potency is reported as “inactive”.
For CCCCNC(=O)CC1N=C2c3ccccc3N=C(SCC(=O)NCc3ccccc3Cl)N2C1=O (stereo unspecified), the Potency was active: 10 µM.
With CCNC(=O)N1CCCC1c1noc(CCC(=O)NCc2cc(F)cc(F)c2)n1 (stereo unspecified) the Potency was inconclusive: 17.8 µM [inhibitor, single point].
For O=C(NC1CCCc2c1[nH]c1ccccc21)c1ccccc1 (stereo unspecified), the Potency was inconclusive: 0.126 µM [inhibitor, full curve, poor fit].
With O=C(c1cccc(O)c1)N1CCNc2cnc(Nc3cccc(F)c3)nc2C1 the Potency was inconclusive: 10 µM [inhibitor, single point].
For CN(Cc1ccccc1)C(=O)Cc1cccn1-c1ccc(F)cc1, the Potency was inconclusive: 20 µM [inhibitor, single point].
In the case of CC(C)[C@H]1CN(c2cnccn2)C[C@@H]1NC(=O)C1(C#N)CCOCC1, the Potency is reported as “inactive”.
For CC(C)CCN1C[C@@H]2C[C@H]1C(=O)N(Cc1cccnc1)c1ccccc1O2, the Potency was inconclusive: 12.6 µM [inhibitor, single point].
With COC(=O)c1cccc(NC(=O)c2ccc3c(c2)N(C)C2CCCCCN2C3=O)c1 (stereo unspecified) the Potency was inconclusive: 1.12 µM [inhibitor, partial curve, poor fit].
With CC(C)(C)c1ccc(C(=O)N2CCN(Cc3cc(=O)n4nc(-c5ccccc5F)sc4n3)CC2)cc1 the Potency was inconclusive: 0.0708 µM [inhibitor, full curve, poor fit].
With CCN1CCN(c2nc3c(s2)CN(C(=O)c2ccncc2)CC3)CC1 the Potency was inconclusive: 12.6 µM [inhibitor, single point].
For Cc1ccc(Cn2c(C3CCN(C(=O)c4ccccc4Cl)CC3)n[nH]c2=O)cc1, the Potency was “inactive”.
In the case of Cc1ccc(C2c3[nH]c4ccccc4c3CCN2C(=O)CCc2ccccc2)cc1 (stereo unspecified), the Potency is reported as inconclusive: 17.8 µM [inhibitor, single point].
For Cc1cnc(C(=O)N2C[C@@H](Oc3ccccc3)C[C@H]2C(=O)N2CCCC2)cn1, the Potency was “inactive”.
For CCOc1ccccc1CN1C[C@@H](NC(=O)COC)C[C@H]1CO, the Potency was inconclusive: 17.8 µM [inhibitor, single point].
In the case of Fc1ccc(Nc2c(-c3ccco3)nc3ccccn23)cc1, the Potency is reported as inconclusive: 17.8 µM [inhibitor, single point].
In the case of COc1ccc(CCNC(=O)Cn2nc(C)c3c(C)n(-c4ccc(C)cc4)nc3c2=O)c(OC)c1, the Potency is reported as inconclusive: 11.2 µM [inhibitor, partial curve, poor fit].
In the case of COCc1nc2nc(-c3ccccc3)c(Nc3ccc(F)cc3)cc2n1C, the Potency is reported as inconclusive: 0.631 µM [inhibitor, full curve, poor fit].
With O=C1Nc2ccccc2OCC12CCN([S+](=O)([O-])c1cccs1)CC2 the Potency was inconclusive: 3.55 µM [inhibitor, single point].
With O=C(c1cn2c(n1)CN([S+](=O)([O-])c1cccc(C(F)(F)F)c1)CC2)N1CCOCC1 the Potency was “inactive”.
With Brc1ccc(CN2CCC(c3nc4ccncc4[nH]3)C2)cc1 (stereo unspecified) the Potency was active: 10 µM and the activity, negative = inhibition was inconclusive: -70.7% [inhibitor].
For Cc1noc(C)c1CN1CCc2nc(C(=O)Nc3cccc(C(F)(F)F)c3)oc2CC1, the Potency was active: 12.6 µM.
In the case of O=C(NCCC1=CCCCC1)c1ccc2c(c1)N(Cc1ccc(Cl)cc1)C(=O)c1ccccc1S2(=O)=O, the Potency is reported as inconclusive: 17.8 µM [inhibitor, single point].
For CCc1cc(N2CCN(CC3(O)CCCNC3)CC2)ncn1 (stereo unspecified), the Potency was “inactive”.
With CCn1cnnc1-c1nn(C)c2c1CN(C(=O)Cc1cccc(F)c1)CC2 the Potency was inconclusive: 17.8 µM [inhibitor, single point].
With N#CC1CCN(C(=O)c2nc(-c3cc(Cl)cc(Cl)c3)c3ccccn23)CC1 the Potency was inconclusive: 17.8 µM [inhibitor, single point].
For CC(=O)N1CCN(c2nc3c(s2)CC(C(=O)NCc2ccc(C(C)C)cc2)CC3)CC1 (stereo unspecified), the Potency was inconclusive: 5.01 µM [inhibitor, partial curve, poor fit].
With O=C(Nc1ccccc1C(F)(F)F)N1CCC2(CC1)Oc1ccccc1C(=O)N2Cc1ccccc1F the Potency was inconclusive: 17.8 µM [inhibitor, single point].
For CCCCOc1ccc(C(=O)Nc2nc3c(s2)CC(C)CC3)cc1 (stereo unspecified), the Potency was inconclusive: 17.8 µM [inhibitor, single point].
With COCCNC(=O)c1ccc2c(c1)N(Cc1c(F)cccc1Cl)C(=O)c1ccccc1S2 the Potency was inconclusive: 12.6 µM [inhibitor, single point].
In the case of CCOC(=O)c1c(C)oc2nc(C)nc(NCc3ccc(OC)cc3)c12, the Potency is reported as inconclusive: 11.2 µM [inhibitor, single point].
In the case of Cc1noc(-c2cccs2)c1C(=O)NCCCCc1ccccc1, the Potency is reported as inconclusive: 8.91 µM [inhibitor, partial curve, poor fit].
With COc1cc(NC(=O)C2(C)CCCCC(=O)N2)cc(OC)c1 (stereo unspecified) the Potency was inconclusive: 12.6 µM [inhibitor, single point].
For CCOc1ccc(-c2ccnc(N3CCC(NC(C)=O)CC3)n2)cc1C(=O)O, the Potency was “inactive”.
With Cc1ccc(C2Cn3nnc(C(=O)N4CCN(C(=O)c5ccccc5)CC4)c3CO2)cc1 (stereo unspecified) the Potency was “inactive”.
